Measurements published in US20250066451A1 (SWEDISH ORPHAN BIOVITRUM AB PUBL, published 2025).
Where a chain is given by its changes, count along the chain named.

T1: Human IL-1R-I (RnD Systems cat. no. 269-1R/CF) (human, UniProt P14778 18-332, limits assumed)
T1 construct: Bought recombinant protein; also called hIL-1R-I; hIL-1RI
T1 sequence (looked up): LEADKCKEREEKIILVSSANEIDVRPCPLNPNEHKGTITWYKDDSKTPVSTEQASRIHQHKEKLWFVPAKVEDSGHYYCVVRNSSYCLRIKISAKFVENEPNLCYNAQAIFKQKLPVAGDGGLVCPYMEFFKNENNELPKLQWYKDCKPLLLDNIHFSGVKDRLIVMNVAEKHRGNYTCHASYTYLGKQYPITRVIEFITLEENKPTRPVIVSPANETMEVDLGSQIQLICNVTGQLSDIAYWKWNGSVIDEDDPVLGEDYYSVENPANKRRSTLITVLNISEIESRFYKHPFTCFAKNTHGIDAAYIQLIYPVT

T2: IL-1R-I on cells (TF-1 cells, NHDF cells, human whole blood) (human, UniProt P14778 18-569)
T2 sequence (looked up): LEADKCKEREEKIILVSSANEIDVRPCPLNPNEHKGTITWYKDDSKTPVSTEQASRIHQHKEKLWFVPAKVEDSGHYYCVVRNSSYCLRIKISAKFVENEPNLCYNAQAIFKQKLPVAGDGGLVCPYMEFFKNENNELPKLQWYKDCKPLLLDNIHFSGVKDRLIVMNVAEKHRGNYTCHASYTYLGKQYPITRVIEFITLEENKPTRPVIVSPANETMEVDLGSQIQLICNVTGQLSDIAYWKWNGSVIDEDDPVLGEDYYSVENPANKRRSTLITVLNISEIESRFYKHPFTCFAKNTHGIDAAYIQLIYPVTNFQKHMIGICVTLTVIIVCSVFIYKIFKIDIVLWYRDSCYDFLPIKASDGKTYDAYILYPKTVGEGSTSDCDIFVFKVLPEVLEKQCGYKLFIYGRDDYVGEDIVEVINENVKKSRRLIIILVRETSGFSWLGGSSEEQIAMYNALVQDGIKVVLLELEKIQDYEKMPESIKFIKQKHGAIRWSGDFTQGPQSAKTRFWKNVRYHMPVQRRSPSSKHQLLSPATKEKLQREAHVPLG

T3: IL-1R-I on TF-1 cells (UniProt P14778 18-569, limits assumed)
T3 sequence (looked up): T2 sequence (looked up)

T4: human IL-1R-I (human, UniProt P14778 18-332, limits assumed)
T4 construct: bought recombinant protein; also called hIL-1R-I; hIL-1RI
T4 sequence (looked up): T1 sequence (looked up)

T5: Human IL-1R-I-Fc (Creative BioMart cat. no. IL1RI-771H) (human, UniProt P14778 18-332, limits assumed)
T5 construct: Bought protein; also called hIL-1R-I-Fc; hIL-1RI-Fc; not shown: Fc part of the bought fusion
T5 sequence (looked up): T1 sequence (looked up)

B1: His6-tagged Z12884 (designed binder)
chain: MGSSHHHHHHLQVDAKYAKEASLAQHEIFALPNLTRKQYTAFIRKLFDDPSQSSELLSEAKKLNDSQAPKVD
notes: also called His6-Z12884
B2: His6-tagged Z12895 (designed binder)
chain: B1 chain with S22L, L23S, H26Q, K37R, F47L
notes: also called His6-Z12895
B3: His6-tagged Z12911 (designed binder)
chain: B1 chain with A21H, S22E, L23K, Q25I, H26L, A30H, K37R, F47L
notes: also called His6-Z12911
B4: His6-tagged Z12917 (designed binder)
chain: B1 chain with S22R, L23Q, Q25Y, H26A, F29Y, A30L, K37R, F47L
notes: also called His6-Z12917
B5: Z18832 (His6-Z) (designed binder)
chain: B1 chain with A21V, S22E, L23E, A24I, H26M, A30H, K37R, F47L
B6: Z15934 (His6-Z) (designed binder)
chain: B1 chain with A21V, S22T, L23V, H26M, F47L
B7: Z15975 (His6-Z) (designed binder)
chain: B1 chain with A21V, S22E, L23T, H26M, A30V, F47L
B8: Z18754 (His6-Z) (designed binder)
chain: B1 chain with A21V, S22E, L23E, A24I, H26M, A30R, K37R, F47L
B9: Z18760 (His6-Z) (designed binder)
chain: B1 chain with A21T, S22E, L23A, A24V, H26M, K37R, F47L
B10: Z18813 (His6-Z) (designed binder)
chain: B1 chain with A21V, S22E, L23E, A24I, H26M
B11: Z18814 (His6-Z) (designed binder)
chain: B1 chain with A21V, S22E, L23E, A24I, H26M, K37R, F47L
B12: Z18831 (His6-Z) (designed binder)
chain: B1 chain with A21I, S22E, L23E, A24V, H26M, A30Y, K37R, F47L
B13: Z18834 (His6-Z) (designed binder)
chain: B1 chain with A21V, S22E, L23E, A24I, H26M, A30G, K37R, F47L
B14: Z18846 (His6-Z) (designed binder)
chain: B1 chain with A21I, S22E, L23E, A24I, H26M, A30H, K37R, F47L
B15: Z18874 (His6-Z) (designed binder)
chain: B1 chain with A21L, S22E, L23A, A24I, H26M, A30H, K37R, F47L
B16: Z18912 (His6-Z) (designed binder)
chain: B1 chain with A21T, S22E, L23E, A24I, H26M, A30H, F47L
B17: Z18968 (His6-Z) (designed binder)
chain: B1 chain with A21L, S22E, L23E, A24V, H26L, A30R, K37R, R44I, F47L
B18: Z19072 (His6-Z) (designed binder)
chain: B1 chain with A21I, S22E, L23E, A24I, H26L, A30S, F47L
B19: Z19159 (His6-Z) (designed binder)
chain: B1 chain with A21T, S22E, L23E, A24V, H26M, K37R, F47L
B20: Z19172 (His6-Z) (designed binder)
chain: B1 chain with A21L, S22E, L23D, A24V, H26L, A30S, K37R, F47L
B21: Z19181 (His6-Z) (designed binder)
chain: B1 chain with A21V, S22E, L23E, A24V, H26L, F29Y, A30S, K37R, F47L
B22: Z12895 as Z-ABD fusion (periplasmic extract) (designed binder)
chain: AQHDEALEVDAKYAKEALSAQQEIFALPNLTRRQYTAFIRKLLDDPSQSSELLSEAKKLNDSQAPKVDYVLAEAKVLANRELDKYGVSDYYKNLINNAKTVEGVKALIDEILAALPYVPG
B23: Z12884 as Z-ABD fusion (periplasmic extract) (designed binder)
chain: B22 chain with L18S, S19L, Q22H, R33K, L43F
B24: Z12891 as Z-ABD fusion (periplasmic extract) (designed binder)
chain: B22 chain with A17Q, L18S, S19Q, Q21Y, Q22H, A26K, R40M
B25: Z12905 as Z-ABD fusion (periplasmic extract) (designed binder)
chain: B22 chain with L18R, S19A, Q22G, F25Y, R40M
B26: Z12910 as Z-ABD fusion (periplasmic extract) (designed binder)
chain: B22 chain with R33S
B27: Z12911 as Z-ABD fusion (periplasmic extract) (designed binder)
chain: B22 chain with A17H, L18E, S19K, Q21I, Q22L, A26H
B28: Z12912 as Z-ABD fusion (periplasmic extract) (designed binder)
chain: B22 chain with S19L
B29: Z12915 as Z-ABD fusion (periplasmic extract) (designed binder)
chain: B22 chain with A17V, L18K, S19W, Q21H, Q22H, A26Q, R33K, R40V, L43F
B30: Z12920 as Z-ABD fusion (periplasmic extract) (designed binder)
chain: B22 chain with L18V, S19Y, Q21R, Q22D, F25Y, A26L, R33K, L43F
B31: Z12922 as Z-ABD fusion (periplasmic extract) (designed binder)
chain: B22 chain with A17D, L18E, S19Q, Q22L, A26N
B32: Z12929 as Z-ABD fusion (periplasmic extract) (designed binder)
chain: B22 chain with A17Q, L18A, S19D, Q21Y, Q22A, F25Y, A26S, R33K, T36V, L43I
B33: Z12933 as Z-ABD fusion (periplasmic extract) (designed binder)
chain: B22 chain with L18K, S19T, Q22I, F25Y, A26D, T36V
B34: Z12941 as Z-ABD fusion (periplasmic extract) (designed binder)
chain: B22 chain with A17V, S19Y, Q21Y, Q22W, R33K, L43M
B35: Z12961 as Z-ABD fusion (periplasmic extract) (designed binder)
chain: B22 chain with L18R, Q21Y, Q22A, F25Y, A26G, R40I
B36: Z12964 as Z-ABD fusion (periplasmic extract) (designed binder)
chain: B22 chain with L18E, S19D, Q21T, Q22M, F25Y, A26N, T36V, R40I
B37: Z12974 as Z-ABD fusion (periplasmic extract) (designed binder)
chain: B22 chain with L18D, S19H, R40I
B38: Z12975 as Z-ABD fusion (periplasmic extract) (designed binder)
chain: B22 chain with L18H, S19N, F25Y, A26R, R40I

How the values were obtained:
[1] = target: T1, Human IL-1R-I (RnD Systems cat. no. …); experiment: Biacore 2000 SPR; hIL-1R-I immobilised on CM5, His6-Z at 40 and 10 nM, 1:1 model
From the text: One flow cell surface on the chip was activated and deactivated for use as blank during analyte injections.

[2] = target: T2, IL-1R-I on cells (TF-1 cells, NHDF …); experiment: cell-based or functional assay
IL-1R-I on TF-1 cells = target: T3, IL-1R-I on TF-1 cells; experiment: cell-based or functional assay
human IL-1R-I = target: T4, human IL-1R-I; experiment: SPR; hIL-1R-I immobilized, His6-Z injected
[3] = target: T5, Human IL-1R-I-Fc (Creative BioMart cat. …); experiment: ELISA titration; Z-ABD periplasmic extract, hIL-1R-I-Fc 100-0.01 nM

Row | Binder | IC50, TF-1 cell assay (IL-1β neutralization) (IL-1R-I on TF-1 cells) [nM] | Kd (human IL-1R-I) [nM] | koff (human IL-1R-I) [s⁻¹] | kon (human IL-1R-I) [M⁻¹ s⁻¹] | EC50 [3] [nM] | further results
1 | B1 | – | – | – | – | – | Kd [1]: 18 nM; IC50, inhibition of IL-1B induced proliferation of TF-1 cells [2]: 27 nM
2 | B2 | – | – | – | – | – | Kd [1]: 5.5 nM; IC50, inhibition of IL-1B induced proliferation of TF-1 cells [2]: 7.1 nM
3 | B3 | – | – | – | – | – | Kd [1]: 7.1 nM; IC50, inhibition of IL-1B induced proliferation of TF-1 cells [2]: 30 nM
4 | B4 | – | – | – | – | – | Kd [1]: 8 nM; IC50, inhibition of IL-1B induced proliferation of TF-1 cells [2]: 11 nM
5 | B5 | 0.5 | 0.12 | 0.007 | 5.9e+07 | – | –
6 | B6 | 6.4 | 0.75 | 0.011 | 1.4e+07 | – | –
7 | B7 | 3.3 | 0.71 | 0.029 | 4.1e+07 | – | –
8 | B8 | 0.6 | 0.086 | 0.006 | 7e+07 | – | –
9 | B9 | 0.9 | 0.21 | 0.0027 | 1.3e+07 | – | –
10 | B10 | 1.2 | 0.2 | 0.0039 | 2e+07 | – | –
11 | B11 | 0.4 | 0.15 | 0.0044 | 3e+07 | – | –
12 | B12 | 0.4 | 0.13 | 0.0053 | 4e+07 | – | –
13 | B13 | 0.5 | 0.14 | 0.008 | 5.8e+07 | – | –
14 | B14 | 0.2 | 0.11 | 0.0051 | 4.7e+07 | – | –
15 | B15 | 0.3 | 0.11 | 0.0052 | 4.9e+07 | – | –
16 | B16 | 1 | 0.21 | 0.019 | 9.2e+07 | – | –
17 | B17 | 1.4 | 0.28 | 0.0084 | 3e+07 | – | –
18 | B18 | 2.4 | 0.41 | 0.018 | 4.3e+07 | – | –
19 | B19 | 1.2 | 0.19 | 0.005 | 2.7e+07 | – | –

Row | Binder | IC50, TF-1 cell assay (IL-1β neutralization) (IL-1R-I on TF-1 cells) [nM] | Kd (human IL-1R-I) [nM] | koff (human IL-1R-I) [s⁻¹] | kon (human IL-1R-I) [M⁻¹ s⁻¹] | EC50 [3] [nM] | further results
20 | B20 | 2 | 0.46 | 0.023 | 4.9e+07 | – | –
21 | B21 | 4.6 | 0.82 | 0.016 | 2e+07 | – | –
22 | B22 | – | – | – | – | 0.23 | –
23 | B23 | – | – | – | – | 0.64 | –
24 | B24 | – | – | – | – | 2.2 | –
25 | B25 | – | – | – | – | 7.3 | –
26 | B26 | – | – | – | – | 0.23 | –
27 | B27 | – | – | – | – | 0.32 | –
28 | B28 | – | – | – | – | 0.39 | –
29 | B29 | – | – | – | – | 4.3 | –
30 | B30 | – | – | – | – | 6.6 | –
31 | B31 | – | – | – | – | 2.9 | –
32 | B32 | – | – | – | – | 17 | –
33 | B33 | – | – | – | – | 1.5 | –
34 | B34 | – | – | – | – | 0.46 | –
35 | B35 | – | – | – | – | 0.29 | –
36 | B36 | – | – | – | – | 0.39 | –
37 | B37 | – | – | – | – | 0.21 | –
38 | B38 | – | – | – | – | 0.26 | –
